# Data reported in the supplement of paper PMC4466236.
# In all, about 33,000 sequences were measured (“E-score (dimensionless, -0.5 to 0.5)”: median about -0.058, highest 2% from about 0.35 on). The list shows a part of the results.
# System: MvaT
# Experiment: PBM 8-mer E-score (mean of HK and ME arrays) (E-score (dimensionless, -0.5 to 0.5)); higher = stronger relative binding preference; most listed sequences are background and not binding sites
# Outline: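 Full-length P. aeruginosa MvaT, with glutathione S-transferase fused to its N-terminus (cloned into pTH6838 by isothermal assembly), was tested by protein binding microarray using a previously described protocol. Two universal double-stranded 60-mer arrays (ME and HK) were used, each with a constant 25-mer primer region and a variable 35-mer region covering all 8-mers. The rank-based 8-mer E-score (-0.5 to 0.5) is the mean of the two arrays, parsed with a custom Python script.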
row,Sequence,PBM 8-mer E-score
1,ATGGTACA,0.0704
2,AGGGGTTG,-0.0976
3,ACCCGAAC,-0.133
4,GCTACTAA,0.111
5,ATAGCATA,0.23
6,GCCGGGGA,-0.225
7,GGAGCCAA,-0.274
8,AACGCGGA,-0.163
9,CGCCCCCA,-0.325
10,ATTAGGGG,-0.0612
11,CCACGGGA,-0.288
12,GATTATCC,0.209
13,CACCCACA,-0.0261
14,AGGTACAC,-0.147
15,TAGACCCA,-0.0766
16,CTCTAGCA,-0.253
17,AATCTTGG,0.0632
18,CGGCCGTA,-0.1
19,ACTGTAGC,0.11
20,AAAAAAAA,0.271
21,AGGAAGGG,-0.309
22,CAGTGAGC,-0.31

row,Sequence,PBM 8-mer E-score
1,TCCTCCCA,-0.213
2,CCGCCAGG,-0.33
3,CTCTAAAC,0.00124
4,GCGAGCAA,-0.0454
5,CTGGCCAG,-0.11
6,GGATGATA,0.0561
7,AACTCTAA,0.25
8,TCACCAAA,0.0788
9,CTTTTAGC,-0.0328
10,CGTTGAAA,0.0238
11,ACGAGATG,-0.173
12,ATGCGATG,-0.0557
13,GCGTAAAA,0.223
14,GCTCTCTA,-0.153
15,CATTAGCC,-0.0329
16,AGCCGACC,-0.118
17,CCACTGAA,-0.103
18,CAGGCTAA,-0.0463
19,CGAAAACA,0.176
20,GTTACCTA,0.00931
21,AATTTCCC,0.207
22,AGACCGGA,-0.0392

row,Sequence,PBM 8-mer E-score
1,ATCCCCTA,-0.253
2,AACCGGTC,-0.0708
3,CTTGAAAA,0.049
4,AGATCCGA,-0.132
5,CGAGAGCA,-0.106
6,ATTTCCGC,0.0484
7,ACGCTCAA,-0.0286
8,CGCGCCCG,-0.173
9,AGCACAAG,-0.0248
10,CTGCCACA,-0.0885
11,CGCAAATC,-0.0327
12,AAGCCTGT,-0.0974
13,CGACTGTC,-0.219
14,CGCCGCAC,-0.196
15,AAATAGGT,0.229
16,GCGGACGA,-0.18
17,ACCTGAAG,-0.105
18,AGCGCGTA,0.0114
19,AGTAAACT,0.14
20,AATGTTCT,0.168
21,AGAGCATG,-0.164
22,ATCCCGAA,0.0538

row,Sequence,PBM 8-mer E-score
1,TAAATTGA,0.321
2,TGCATACA,0.1
3,CGGTACTA,-0.0157
4,GTAGTCTA,0.0473
5,CTACTAAG,-0.00927
6,CCGCAACC,-0.0789
7,AGAGGGAA,-0.204
8,AATCGTTG,-0.0166
9,CGGCAGAG,-0.231
10,CACTGAGA,0.0457
11,AAATGAGA,-0.00699
12,ACACATTC,0.036
13,AAGTCATG,-0.1
14,AACCGGTT,-0.0432
15,AATGCCAT,0.0557
16,TCCGCCGA,-0.148
17,AGAATTAA,0.301
18,AAGCAGCC,-0.138
19,GGAAACGA,-0.0256
20,GCAGGTCA,-0.0436
21,CAGGTCAG,-0.167
22,ACACAGAA,0.0462

row,Sequence,PBM 8-mer E-score
1,AACCGGGT,-0.143
2,AAGAACCT,-0.0904
3,CCCGAGCG,-0.237
4,ACGGCAAC,-0.107
5,GATTATGC,0.148
6,GATATAAA,0.344
7,ACCCTTGC,-0.0785
8,ACACCACA,0.0813
9,CGTTGAGA,-0.214
10,ACAACTTG,0.237
11,AGGCTTTC,-0.024
12,CCTAATGA,-0.254
13,ACTATTGG,0.165
14,CTATGTCA,-0.0232
15,AGAGTGAC,-0.128
16,GTAATTAA,0.343
17,GGTATCTA,0.0244
18,CTAACGTA,0.096
19,ACGCTCTC,-0.273
20,TCATATGA,0.204
21,CGAGATAA,0.0958
